Laboratory results as given in patent US20210221863A1 (Innovent, published 2021).

T1: IL-2Rα (CD25) on primary human CD8^+ CD25^+ T cells (human, UniProt P01589 22-272)
T1 sequence (looked up): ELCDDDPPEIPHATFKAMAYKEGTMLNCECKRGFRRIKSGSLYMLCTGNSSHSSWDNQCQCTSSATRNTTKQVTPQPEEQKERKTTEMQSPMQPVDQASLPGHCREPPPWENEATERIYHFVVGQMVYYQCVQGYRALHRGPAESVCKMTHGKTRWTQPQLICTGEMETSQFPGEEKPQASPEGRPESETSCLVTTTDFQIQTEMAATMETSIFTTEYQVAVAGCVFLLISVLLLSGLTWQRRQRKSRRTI

T2: IL-2Rβ IH-Biotin (Homo sapiens (Human), UniProt P14784 27-240, biotin on the avi tag (enzymatic labeling with His-BirA))
T2 construct: also called IL-2Rβ IH (in house); CD122
T2 sequence: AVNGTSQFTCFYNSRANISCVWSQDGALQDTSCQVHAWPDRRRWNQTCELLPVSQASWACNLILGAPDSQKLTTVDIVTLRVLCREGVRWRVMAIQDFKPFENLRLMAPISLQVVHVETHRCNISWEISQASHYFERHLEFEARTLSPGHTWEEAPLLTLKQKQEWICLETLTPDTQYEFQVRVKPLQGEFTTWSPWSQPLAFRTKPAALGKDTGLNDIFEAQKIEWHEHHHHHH


molecular target: T1, IL-2Rα (CD25) on primary human CD8^+ …; assay: cell-based or functional assay

Ratio of CD25^- EC50/CD25^+ EC50 (donor1) | Binder
2 | Y07 IL-2^mutant-FC fusion protein (Fc fusion, Combines IBYDL029 mutant Y30G4 and IBYDL031 mutant Y27F6) APTSSSTKKTQLQLEHLLLDLQMILNGINNYKNPDLTWMLTEEFKMPKKATELKHLQCLEEELKPLEKVLNLAQSKNFHLDTEDLIENINVMVLELKGSETTFMCEYADETATIVEFLNRWITFSQSIISTLTGGGGSGGGGS[human IgG1 Fc with changes left out here]
2 | Y10 IL-2^mutant-FC fusion protein (Fc fusion, Homodimer through the Fc hinge disulfides; one chain is given., Combines IBYDL029 mutant Y30E3 and IBYDL031 mutant Y28F1) APTSSSTKKTQLQLEHLLLDLQMILNGINNYKNPDLTFMLEEKFKMPKKATELKHLQCLEEELKPLEYVLNLAQSKNFHLDTEDLIDNINLLVLELKGSETTFMCEYADETATIVEFLNRWITFSQSIISTLTGGGGSGGGGS[human IgG1 Fc with changes left out here]

molecular target: T2, IL-2Rβ IH-Biotin; assay: BLI (Octet Red96): biotinylated receptor on SA sensor, 100 nM Fc fusion in solution, 1:1 model
Method: A BLI affinity assay was performed according to the prior art (Estep, P, et al., High throughput solution based measurement of antibody-antigen affinity and epitope binning. MAbs, 2013.5(2): p. 270-8). […] Kinetic analysis was performed on the assay results using a 1:1 binding model.

Kd [nM] | Binder
0.16 | Y07 IL-2^mutant-FC fusion protein (Fc fusion, Combines IBYDL029 mutant Y30G4 and IBYDL031 mutant Y27F6) APTSSSTKKTQLQLEHLLLDLQMILNGINNYKNPDLTWMLTEEFKMPKKATELKHLQCLEEELKPLEKVLNLAQSKNFHLDTEDLIENINVMVLELKGSETTFMCEYADETATIVEFLNRWITFSQSIISTLTGGGGSGGGGS[human IgG1 Fc with changes left out here]
0.069 | Y01 IL-2^mutant-FC fusion protein (Fc fusion, Combines IBYDL029 mutant Y30C2 and IBYDL031 mutant Y27C1) APTSSSTKKTQLQLEHLLLDLQMILNGINNYKNPDLEEMLEFEFKMPKKATELKHLQCLEEELKPLEEVLNFAQSKNFELDIEDLIDNINVIVLELKGSETTFMCEYADETATIVEFLNRWITFSQSIISTLTGGGGSGGGGS[human IgG1 Fc with changes left out here]
0.096 | Y05 IL-2^mutant-FC fusion protein (Fc fusion, Combines IBYDL029 mutant Y29D6 and IBYDL031 mutant Y27D4) APTSSSTKKTQLQLEHLLLDLQMILNGINNYKNPDLEDMLTFYFKMPKKATELKHLQCLEEELKPLEEVLNFAQSKNFHLDTEDLIDNINVLVLELKGSETTFMCEYADETATIVEFLNRWITFSQSIISTLTGGGGSGGGGS[human IgG1 Fc with changes left out here]
0.11 | Y10 IL-2^mutant-FC fusion protein (Fc fusion, Homodimer through the Fc hinge disulfides; one chain is given., Combines IBYDL029 mutant Y30E3 and IBYDL031 mutant Y28F1) APTSSSTKKTQLQLEHLLLDLQMILNGINNYKNPDLTFMLEEKFKMPKKATELKHLQCLEEELKPLEYVLNLAQSKNFHLDTEDLIDNINLLVLELKGSETTFMCEYADETATIVEFLNRWITFSQSIISTLTGGGGSGGGGS[human IgG1 Fc with changes left out here]
0.41 | Y08 IL-2^mutant-FC fusion protein (Fc fusion, Combines IBYDL029 mutant Y29F3 and IBYDL031 mutant Y28A2) APTSSSTKKTQLQLEHLLLDLQMILNGINNYKNPELTRMLQRDFYMPKKATELKHLQCLEEELKPLEYVLNLAQSKNFDLDPRDLIDNINVLVLELKGSETTFMCEYADETATIVEFLNRWITFSQSIISTLTGGGGSGGGGS[human IgG1 Fc with changes left out here]
0.34 | Y11 IL-2^mutant-FC fusion protein (Fc fusion, Homodimer through the Fc hinge disulfides; one chain is given., Combines IBYDL029 mutant Y30E6 and IBYDL031 mutant Y28F5) APTSSSTKKTQLQLEHLLLDLQMILNGINNYKNPELKEMLEFEFYMPKKATELKHLQCLEEELKPLEEVLNFAQSKNFELDAEDLIENINVMVLELKGSETTFMCEYADETATIVEFLNRWITFSQSIISTLTGGGGSGGGGS[human IgG1 Fc with changes left out here]
0.31 | Y02 IL-2^mutant-FC fusion protein (Fc fusion, Combines IBYDL029 mutant Y29A4 and IBYDL031 mutant Y27C2) APTSSSTKKTQLQLEHLLLDLQMILNGINNYKNPELTDMLEFEFYMPKKATELKHLQCLEEELKPLEEVLNFAQSKNFHLDAEDLIENINVMVLELKGSETTFMCEYADETATIVEFLNRWITFSQSIISTLTGGGGSGGGGS[human IgG1 Fc with changes left out here]
0.14 | Y03 IL-2^mutant-FC fusion protein (Fc fusion, Combines IBYDL029 mutant Y30C1 and IBYDL031 mutant Y27C5) APTSSSTKKTQLQLEHLLLDLQMILNGINNYKNPELTWMLTQKFKMPKKATELKHLQCLELELKPLERVLNLAQSKNFHLDAEDLIENINVLVLELKGSETTFMCEYADETATIVEFLNRWITFSQSIISTLTGGGGSGGGGS[human IgG1 Fc with changes left out here]
0.48 | Y06 IL-2^mutant-FC fusion protein (Fc fusion, Combines IBYDL029 mutant Y29F4 and IBYDL031 mutant Y27E1) APTSSSTKKTQLQLEHLLLDLQMILNGINNYKNPELYWMLYEEFKMPKKATELKHLQCLEEELKPLEEVLNKAQSKNFQLDAEDLIENINVIVLELKGSETTFMCEYADETATIVEFLNRWITFSQSIISTLTGGGGSGGGGS[human IgG1 Fc with changes left out here]
0.14 | Y09 IL-2^mutant-FC fusion protein (Fc fusion, Homodimer through the Fc hinge disulfides; one chain is given., Combines IBYDL029 mutant Y30B4 and IBYDL031 mutant Y28A5) APTSSSTKKTQLQLEHLLLDLQMILNGINNYKNPDLTWMLTEYFRMPKKATELKHLQCLERELKPLEYVLNLAQSKNFELNAEDLIDNINVLVLELKGSETTFMCEYADETATIVEFLNRWITFSQSIISTLTGGGGSGGGGS[human IgG1 Fc with changes left out here]
0.13 | Y04 IL-2^mutant-FC fusion protein (Fc fusion, Combines IBYDL029 mutant Y27A3 and IBYDL031 mutant Y27D2) APTSSSTKKTQLQLEHLLLDLQMILNGINNYKNPDLKEMLKQDFYMPKKATELKHLQCLEEELKPLEYVLNLAQSKNFELDTEDLIENINLIVLELKGSETTFMCEYADETATIVEFLNRWITFSQSIISTLTGGGGSGGGGS[human IgG1 Fc with changes left out here]
